The test system of this assay is SNB-75 CNS. The experiment in a line: NCI-60 one-dose screen, 48 h (100 = growth as untreated, 0 = no growth, -100 = all killed).

A structure can be active in one record and inactive in another.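 Interpretation: 100, growth as untreated; towards 0, rising growth inhibition; 0, no net growth; 0 to -100, cell death. Compounds scoring below 10 were considered active.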 Some entries of the source have several records that differ or are many. Only these are listed. The source may hold further records. This drug was run again and again over the years, at its own concentration, as given; one value stands for one run. Signs of the kind (2×) say how often a value occurs here.

For `COc1cccc2c1C(=O)c1c(O)c3c(c(O)c1C2=O)C[C@@](O)(C(=O)CO)C[C@@H]3OC1CC(N)C(O)C(C)O1` (stereo not given in full), the growth entry (0.25 µM, runs of 2018) is “inactive: 18.7 (2×), 12.6, 40.5, 42.1 (3×), 33.1, 33.3, 38.5, 42.8, 49.8, 45.2, 34.2, 36.2, 33.9 (2×), 35.9, 28.2, 33.4, 39, 38.3, 32.9, 36.6, 29.4, 30.8, 31.9, 55.7, 56.3, 23.5, 21.9 (2×), 27.2, 25.8 (2×), 29.3, 29.8, 32.2, 36.9, 28.9, 24.7, 25.9, 17.2, 16.6, 17.8, 21.2, 37.9% and active: 5.6%, 7.57%”; the growth result (0.25 µM, runs of 2019) is “inactive: 10.4 (2×), 12.9, 22.2, 24.7 (2×), 18.9 (2×), 23, 12.6 (2×), 34.7, 28.2, 33.5, 16.2, 13.8, 23.8, 26.8, 20.7, 15.1, 20, 22.4, 26.1, 24.3, 15.9, 11.9, 19.1, 15, 22.3, 48.7, 12.3, 29.5% and active: -5.5, 6.52, 4.84, 3.9, 2.42, 3.92, -1.01, 9.56, 5.87, 5.58, 5.75, 8.89, 6.07, -5.2, -0.465%”; the growth entry (0.25 µM, runs of 2020) was “inactive: 12.7, 59.4, 16.5, 17.2, 14.5, 22.3, 25.5, 33, 29.7, 24.1, 38.7, 43.2, 31.6% and active: 2.94, -1.84, 1.08, -8.03, -8.83, -5.17, -8.06, 8.48, 6.81%”; the growth entry (0.25 µM, runs of 2021) was “inactive: 27.1, 35.2, 25.6, 26.4, 29.9, 64.8, 65.6, 42.9, 41.5, 27.7, 29.3, 25.9, 23.7, 33.1, 17.9, 15.3, 20.9, 24.1, 20.8, 21.1, 36.2, 36.6, 30.2, 29.4, 47, 40.6, 21.2, 18.8, 33.5, 23.8, 25.2, 24.8, 30.5, 43.9, 37.6, 28.9, 30.7, 19.8, 18.7, 13.5, 24.7, 30.1, 36.1, 62.1, 15.5, 13.1, 24, 42.1% and active: 6.65, 7.2, 8.68, 7.97%”; the growth entry (0.25 µM, runs of 2022) was “active: 5.26, 7.32, -0.998, -22, -2.32% and inactive: 18.5, 21.6, 14.9, 18.1, 24.5, 12.9, 31.1, 51.3, 37.3, 41.4, 20.7, 51.8, 47.1, 28, 44.7, 58, 45.3, 17.8, 13, 30.6, 40.6%”; the growth entry (25 µM, runs of 1991) was “active: -74.4, -87.8, -87 (2×), -68.9, -93.8, -66.8, -67.7, -89.9, -69.8, -70, -73.5, -64.3, -52.3, -54.4, -63.9% and inactive: 62.8%”. The growth result by setting is: (25 µM, runs of 1992) “active: -68.7, -86.6 (2×), -78.3, -56.8, -61.1, -66.6, -86.9, -88.8, -83.8, -73.6, -87.2 (2×), -74, -67.3 (2×), -58.5, -36.5, -69.5, -85.7, -78.8, -80, -86, -90.1 (2×), -89.3, -92.6, -49.8, -84.7, -88.2, -72.7, -59 (3×), -56.3, -24.8, -22.7, -81.5, -86.4, -75.9, -84, -93, -88.9, -94.3, -90.2, -87.8, -72.5, -66, -50.8, -51.8, -75.7 (2×), -85.1 (3×), -86.7, -91.2, -88.6, -85.3, -84.2, -76.2, -70.1, -63.2, -83 (2×), -86.1, -83.2, -79.9, -86.8 (2×), -82.7, -63.1, -58.1, -79.8, -63.4, -47.9, -53.6, -37.2, -98, -93.3, -92.8, -95.9, -82.9, -29.8, -95.3, -79.3, -70.2, -26, -49.2, -30.2, -82.4, -83.7, -32.9, -81.9, -77.2, -77.3, -85.4, -63.6, -76.9, -85.6, -54, -82.8, -50.4, -50.2, -53.7, -94.7, -64, -53, -56, -95.1%”; (25 µM, runs of 1993) “active: -86.2, -62.2, -63.1, -50, -78.8, -94.9, -88.5, -81.8, -48, -73.5, -97.3, -96.5, -93.8, -59.6, -67.2 (2×), -64.8, -88.4, -86.8, -91.2 (3×), -78.6, -54.2, -89.1, -79.9, -78, -43.9, -78.4, -85.5, -85.6, -74.3, -77.4, -79.6, -70.8, -91.1, -82.4, -100 (2×), -95, -67, -93.6, -36.1, -62.5, -76.9%”; (25 µM, runs of 1994) “active: -61.4, -81.6, -43.6, -76.2, -59.9, -83.1 (2×), -90.3, -93, -57.1, -91.1, -56, -55.3, -86, -79.5, -52.1, -75.1, -53, -97.4, -67.4, -96.7, -86.2, -53.3, -82.5, -50.5, -80.5%”; (25 µM, runs of 1995) “active: -54.3, -78.9, -77.5, -10.9, -46.3, -78, -90.6, -61, -60.2, -67.1, -50.4, -60.9, -71.4, -89.4, -81.8, -84.6, -92, -70.7, -90.2, -94.7, -69.8, -56.2, -66.1, 4.21, -52.8, -72.4, -62.4, -65.4, -79.5, -27.5, -37.1, -69.4, -57.2%”; (25 µM, runs of 1996) “active: -78.5, -51.7, -21.3, -48.9, -59.6, -24.9, -37.3, -50, -66, -29.2, -43.6, -60.3, -68.3, -49.2, -64.5, -80.7, -79.7, -35, -54.6, -78.2, -78.8, -75.3, -79.2, -41.7, -45.4, -43.4, -34.6, -76.2 (2×), -66.6, -60.2, -48, -37, -56.2, -70.1, -89.4, -58.3, -95.7, -66.2, -75.7, -50.1, -48.5, -77.3 (2×), -75, -86.6, -30.3, -45.1, -26.5, -81.9, -92.9, -68.8, -59.5, -33.3% and inactive: 81.2%, 55%”; (25 µM, runs of 1997) “active: -41.9, -38.2, -76.1, -44.3, -63.2, -51.9, -71.2, -82.2, -83.5, -81.7 (3×), -78.5, -87.2, -66, -64.3, -54.3, -82.9, -79.4, -91.3, -67.5, -78.8 (2×), -70.5, -73.7, -46.3, -80.3, -73.9, -77.7, -81.9, -82.5, -67.8, -68.2, -59.3, -95.3, -79.1, -83.9, -89.7, -78.4%”. The growth entry by setting is: (25 µM, runs of 1998) “active: -86.3, -73.9, -80.3, -47.8, -92.2, -72.2, -95.3, -97.4, -71.3, -63, -70.4, -81.5, -36.1, -61.1, -81.7, -90.2, -69, -42.4, -81.8, -72.1%”; (25 µM, runs of 1999) “active: -84, -53.5, -17.7, -70.7, -58.9, -80.3, -69.8, -72.9, -89.2, -85.9, -7.26, -23, -65.4, -100, -76%”; (25 µM, runs of 2000) “active: -42.5, -100, -66.1, -81.2%”.

These data come from PubChem BioAssay (NCI).
